Hit rate of the full screen: of about 410,000 compounds, about 490 (0.12%) were called active. Inconclusive means that the source gave no clear call. Such entries were picked first, then a sample of the others. Calls follow the shape of the dose curve; as a rule, active = well fitted inhibition curve with a large enough effect; inconclusive = small, poorly fitted or top-dose-only effect; inactive = flat fitted curve, though single readings scatter. Where the call is inconclusive, the potency comes from a doubtful curve fit.
The compounds below were run against pyruvate kinase (Trypanosoma brucei) (UniProt Q57TT1) (assay: qHTS of Trypanosoma Brucei Inhibitors). Settings: TbPYK enzyme, Kinase-Glo Plus ATP luminescence, 45 min; series mostly up to 76.8 µM.
How it was run: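 Activity of T. brucei pyruvate kinase was followed by Kinase-Glo Plus luminescence after the enzyme reacted 45 min at room temperature with 130 uM ADP (final) and substrate. Test compounds were added before ADP at multiple concentrations.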
Also: nearly all actives have a fitted effect of over 50% in size.
Potency is read from the fitted curve at half-maximal effect; tags tell the direction and shape of the fitted curve.

| SMILES | Potency |
| --- | --- |
| CCn1nc(C)cc1C(=O)N1CCCC(C(=O)c2ccccc2SC)C1 (stereo unspecified) | inactive |
| CCN(CC)CCNC(=O)c1cc(Nc2ccc(OC)c(OC)c2)nc2ccccc12 | inactive |
| CCOc1ccccc1N1C(=O)NC(=O)/C(=C/c2ccc3c4c(cccc24)CC3)C1=O | inconclusive: 35.5 µM [inhibitor, partial curve, poor fit] |
| C=CCc1cc(C=C2C(=O)NC(=O)NC2=O)cc(OC)c1OCc1ccc(C(=O)O)cc1 | inconclusive: 17.8 µM [inhibitor, partial curve] |
| N#Cc1c(-c2ccc(Cl)cc2)c2c([nH]c1=S)CCCC2 | inconclusive: 2.24 µM [inhibitor, full curve] |
| CCCNC(=O)C1(C)CCN(Cc2cc(C(F)(F)F)ccc2Cl)C1 (stereo unspecified) | inactive |
| CC1CCCC(C)N1C(=O)c1cc(-c2cccs2)on1 (stereo unspecified) | inactive |
| CCOC(=O)c1ccc(NC(=O)N2CCN(Cc3ccccc3)CC2)cc1 | inactive |
| O=C1NC(=S)NC1=Cc1ccco1 | inconclusive: 20 µM [inhibitor, partial curve, poor fit] |
| CCOc1ccc(-c2nc3ccccc3c(=O)o2)cc1 | inactive |
| Oc1ccc(Br)cc1/C=N/n1c(C2CCCCC2)n[nH]c1=S | inconclusive: 39.8 µM [inhibitor, single point] |
| COc1ccc(Cc2c3cc(OC)c(OC)cc3cc[n+]2C)cc1OC | inconclusive: 31.6 µM [inhibitor, single point] |
| COc1ccc(-n2c(SCc3ccccc3)nc3c([nH]c4ccccc43)c2=O)cc1 | inactive |
| COc1cc(/C=N/NC(=O)Nc2ccccc2)ccc1OC(C)=O | inactive |
| C=CCn1c(SCC(=O)c2ccc(NS(=O)(=O)c3ccccc3)cc2)nnc1-c1cccs1 | inconclusive: 39.8 µM [inhibitor, single point] |
| O=C(Nc1cccc(S(=O)(=O)N2CCOCC2)c1)C1COc2ccccc2O1 (stereo unspecified) | inconclusive: 31.6 µM [inhibitor, single point] |
| COc1ccc(-c2noc(C3CCCN(C(=O)c4cccs4)C3)n2)cc1 (stereo unspecified) | inactive |
| O=C(O)C1CC=CCC1C(=O)Nc1cccc(Cl)c1 (stereo unspecified) | inconclusive: 35.5 µM [inhibitor, single point] |
| Cc1cccc(-n2c(C)n[nH]c2=S)c1C | inconclusive: 50.1 µM [inhibitor, single point] |
| O=c1[nH]c(=S)[nH]c(O)c1N=Nc1cc2c(cc1[N+](=O)[O-])OCO2 | inconclusive: 35.5 µM [inhibitor, single point] |
| CCc1nnc(NC(=O)c2nc(S(=O)(=O)Cc3cccc(C)c3)ncc2Cl)s1 | inactive |
| CC(=O)/C(=N\Nc1ccccc1)Sc1nncn1C | inconclusive: 14.1 µM [inhibitor, partial curve] |
| Cn1c(SSc2ccc(-c3cccnc3)n2C)ccc1-c1cccnc1 | inconclusive: 10 µM [inhibitor, partial curve, poor fit] |

| SMILES | Potency |
| --- | --- |
| O=C(Nc1cc(Sc2ccccn2)cc([N+](=O)[O-])c1)c1ccc([N+](=O)[O-])cc1 | inconclusive: 28.2 µM [inhibitor, partial curve, poor fit] |
| O=C(Nc1ccc2c(c1)CCC2)c1cc2ccccc2o1 | inactive |
| CC1(C)CC(=O)C2=C(C1)OC1=C(C(=O)CC(C)(C)C1)C2c1ccc(O)cc1O | active: 39.8 µM |
| COC(=O)c1cc(=O)n(Cc2ccc(OC)c(OC)c2)c(=Nc2ccc(F)cc2)s1 | inactive |
| COc1ccc(S(=O)(=O)N2CCN(C(=O)c3ccco3)CC2)cc1OC | inconclusive: 50.1 µM [inhibitor, single point] |
| O=C(c1ccco1)N1CCN(Cc2nnnn2CC2CCCO2)CC1 (stereo unspecified) | inconclusive: 44.7 µM [inhibitor, single point] |
| CCOC(=O)N1CCN(C(=O)C2CCN(C(=O)c3ccccc3C)CC2)CC1 | active: 7.94 µM |
| C=C(C)CSc1cc(C)c(C#N)c2nc3ccccc3n12 | inconclusive: 10 µM [inhibitor, partial curve] |
| Fc1ccccc1/C=N/n1c(C2CCCCC2)n[nH]c1=S | inconclusive: 17.8 µM [inhibitor, partial curve, poor fit] |
| O=C1CSC(=S)N1/N=C/c1ccc(O)c([N+](=O)[O-])c1 | inconclusive: 28.2 µM [inhibitor, partial curve] |
| Cc1cccc(-n2cc(-c3ccccc3)[nH]c2=S)c1 | inconclusive: 6.31 µM [inhibitor, partial curve] |
| N/C(=N/OC(=O)c1ccccc1F)c1nonc1N | inconclusive: 50.1 µM [inhibitor, single point] |
| COc1ccc(-c2n[nH]c(=S)n2Cc2ccccc2)cc1 | inconclusive: 3.98 µM [inhibitor, partial curve, poor fit] |
| CSc1ccc(/C=N/n2c(COc3ccccc3)n[nH]c2=S)cc1 | inconclusive: 31.6 µM [inhibitor, partial curve, poor fit] |
| Cc1ccc(-n2c(CSc3nc(C)cc(C)n3)n[nH]c2=S)cc1 | active: 7.08 µM |
| COc1cc2c(cc1OC)-c1n[nH]c(=S)n1C(C)(C)C2 | inconclusive: 14.1 µM [inhibitor, partial curve] |
| Cc1sc2ncn(CC(=O)Nc3cccc(C(F)(F)F)c3)c(=O)c2c1S(=O)(=O)N1CCC(C)CC1 | inactive |
| COc1ccccc1N1CCN(CCCCN2C(=O)C3CCCCN3C2=O)CC1 (stereo unspecified) | inconclusive: 39.8 µM [inhibitor, single point] |
| C/C(=N/NS(=O)(=O)c1ccc(Cl)cc1)c1ccncc1 | inactive |
| CN(CC1CCCN(CCc2ccccc2F)C1)C(=O)c1ccoc1 (stereo unspecified) | inactive |
| Cc1cccc(NC(=O)c2ccc(C3SCC(=O)N3CCc3ccccc3)cc2)c1C (stereo unspecified) | inconclusive: 3.16 µM [inhibitor, partial curve, poor fit] |
| Cc1ccc(C(=O)c2cn[nH]c2-c2cc(Cl)ccc2O)cc1 | inconclusive: 50.1 µM [inhibitor, single point] |
| S=c1nn[nH]n1C12CC3CC(CC(C3)C1)C2 | inconclusive: 2.82 µM [inhibitor, full curve] |
